According to PubChem BioAssay AID1656 (Sanford-Burnham Center for Chemical Genomics, 2009):
Among all 240,000 compounds or so, about 950 (0.4%) were called active. This list was built around the results that the source calls inconclusive (neither active nor inactive); the mix of calls is not that of the screen.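 How the source made its calls: active means lipid droplet intensity inhibited by at least 50%, with more than 500 cells counted; inconclusive means wells with under 300 cells, treated as cytotoxic; inactive means the rest.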

assay: inhibitors of hepatocyte lipid droplet formation, primary screen, imaging, high-throughput imaging, BODIPY stain (AID 1656); details: AML12 mouse hepatocytes, oleate lipid droplets, at 6.5 µM, stronger effect = higher value
In short: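 material = mouse AML12 hepatocyte cell line, fixed after treatment | also added = 100 µM oleic acid challenge | doses = compound at 6.5 µM only | schedule = overnight exposure | technique = Image-based BODIPY and DAPI two-channel analysis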

Row | SMILES | inhibition
1 | CC1=CC(=O)C=C(C)C1=NOc1ccccc1[N+](=O)[O-] | inconclusive: -434%
2 | Nc1c(C(=O)Nc2ccccc2Cl)nnn1-c1ccc2c(c1)OCCO2 | inactive: -3.6%
3 | O=C(CN1C(=O)COc2ccc(Cl)cc21)N1CCCCC1 | inactive: -4.1%
4 | CCc1ccccc1NC(=O)C1=CC(c2cccs2)=NS(=O)(=O)N1C | active: 71.6%
5 | O=C(O)CSCC(=O)Nc1ccc(C2CCCCC2)cc1 | inconclusive: -62.6%
6 | Cc1ccc(-n2nc3c(=O)n(C(C)C(=O)NCCc4cccs4)nc(C)c3c2C)cc1 (stereo not drawn) | active: 52.7%
7 | COc1ccc(CN(C)CC(=O)Nc2cc3oc4ccccc4c3cc2OC)c(OC)c1 | inactive: -9.4%
8 | Cc1cc(C)nc(NS(=O)(=O)c2ccc(N/C=C/C(=O)c3ccc(Cl)cc3)cc2)n1 | inactive: 5.8%
9 | CCOC(=O)c1c(NC(=O)CCl)sc(CN(C)C)c1-c1ccccc1 | inactive: 8.7%
10 | COc1ccc2c(c1)C(C)=CC(C)(C)N2S(=O)(=O)c1ccc(Br)cc1 | inconclusive: -187%
11 | CC(=O)Cc1nsc(NC(=O)c2ccc(COc3ccccc3Cl)o2)n1 | inconclusive: -140%
12 | CCn1nc(C)c(CNC(=O)c2cc(COc3ccc(F)cc3Cl)on2)c1C | inactive: 3.3%
13 | O=C(CSc1nc2ccccc2[nH]1)N1CCN(c2ccc(F)cc2)CC1 | inactive: -15.3%
14 | COC(=O)c1ccc(CN2C(=O)c3ccccc3C2=O)o1 | inconclusive: -159%
15 | CCOc1ncccc1C(=O)N1CCN(c2cc(Cl)ccc2C)CC1 | inconclusive: -241%
16 | c1ccc(-c2nc(-c3ccncc3)no2)cc1 | inactive: 0.4%
17 | O=C(COC(=O)COc1ccc(Cl)cc1Cl)Nc1cccnc1Cl | active: 50.2%
18 | CCCCOc1ccc(NC(=O)Cn2c(=O)ccc3c(C)cc(C)nc32)cc1 | active: 66.3%
19 | O=C(CC(=O)N/N=C/c1ccc(F)cc1)N/N=C/c1ccc(F)cc1 | inconclusive: -114%
20 | CCOC(=O)c1c(C)[nH]c(C)c1C(=O)COC(=O)c1cc(OC)cc(OC)c1 | inactive: 3.7%
21 | COc1ccc(Cl)c(NC(=O)C/C(C)=N/NC(=O)CCc2ccccc2)c1 | active: 122%
22 | CCC1(c2ccc(Cl)cc2)NC(=S)N(c2ccc(C)cc2)N1 (stereo not drawn) | inactive: 2.4%

Row | SMILES | inhibition
23 | COCCNC(=O)CSc1nc2scc(-c3ccccc3)c2c(=O)[nH]1 | inactive: 0.9%
24 | O=C(Cn1c(-c2ccccc2)c[n+]2ccsc12)c1ccccc1 | inactive: 8.6%
25 | Cc1cc(OC(C)C(=O)NCc2ccncc2)c2c(C)cc(=O)oc2c1 (stereo not drawn) | inactive: 15.2%
26 | CCCCNC(=O)c1ccc(NS(=O)(=O)c2ccccc2)cc1 | inconclusive: 110%
27 | COc1cccc(-c2nc(NCc3ccccc3)c3ccccc3n2)c1O | active: 69.3%
28 | O=C(NC(=S)NNC(=O)c1cnccn1)c1ccc(Cl)cc1 | inactive: -52.5%
29 | Cc1cc(C(F)(F)F)c(C#N)c(SCC(=O)NC(C)(C)C)n1 | inactive: 0.8%
30 | O=C(O)C1CCCCC1C(=O)NCCc1c[nH]c2ccccc12 (stereo not drawn) | inactive: -8.9%
31 | COc1cc(CNCc2ccccn2)ccc1OCc1ccc(Cl)c(Cl)c1 | inactive: -7.1%
32 | COc1ccc(COc2cc(-c3cccc(OC)c3)nc3ccc(N)cc23)cc1 | inconclusive: -272%
33 | O=C(COC(=O)CCc1c[nH]c2ccccc12)NCc1ccc(Cl)cc1 | inactive: -0.5%
34 | CCc1csc(CNC(=O)C2CCC(=O)N(Cc3cccc(F)c3)C2)n1 (stereo not drawn) | inactive: -10.4%
35 | Cc1ccc([N+](=O)[O-])cc1NC(=O)C(C)Sc1nnc(C)n1CC1CCCO1 (stereo not drawn) | active: 60.5%
36 | O=C(N=C1SC2CS(=O)(=O)CC2N1c1ccc(OC(F)(F)F)cc1)C1CC1 (stereo not drawn) | inactive: -22%
37 | CC(C)N=C(NS(=O)(=O)c1ccccc1)C(Cl)(Cl)Cl | inconclusive: -30.9%
38 | COc1cc([C@@H]2c3cc4c(cc3[C@@H](NC3CCN(Cc5ccccc5)CC3)[C@H]3COC(=O)[C@H]23)OCO4)cc(OC)c1O | inconclusive: -226%
39 | COc1cc(/C=N/Nc2nc(Nc3ccccc3)nc(N3CCOCC3)n2)ccc1OC(=O)c1ccco1 | inconclusive: -84.9%
40 | CCCCNC(=O)c1ccc2c(c1)N(C)C(=O)c1ccccc1S2 | active: 77.6%
41 | COc1cccc(N2CCN(CC(=O)Nc3nnc(-c4ccccc4)s3)CC2)c1 | active: 59.2%
42 | O=C(C1CCCO1)N1CCN(C(=S)Nc2ccc(Br)cc2)CC1 (stereo not drawn) | inactive: 2.3%
43 | CC1CN(C(=O)Nc2ccc3snnc3c2)c2ccccc21 (stereo not drawn) | inactive: -45.2%
44 | CCOc1cc(C(=O)N/N=C/C(Br)=C/c2ccccc2)cc(OCC)c1OCC | inconclusive: -95.2%

Row | SMILES | inhibition
45 | CCC(C)c1ccccc1NC(=O)COC(=O)c1ccc2[nH]c3c(c2c1)CCCC3 (stereo not drawn) | active: 58.9%
46 | CCOC(=O)N1CCN(C(=O)CSc2nnc(-c3cccc(Cl)c3)o2)CC1 | inactive: 1.5%
47 | O=C(CCl)N=c1sccn1Cc1cccc2ccccc12 | inconclusive: -59.6%
48 | CCCn1c(SCC(=O)NC)nc2sc3c(c2c1=O)CCC3 | inconclusive: -131%
49 | Cc1cc(Cl)ccc1NC(=S)NCCCN1CCCC1=O | inconclusive: 3.8%
50 | COc1ccccc1N1CCN(C(=O)Cn2ncc3c([nH]c4ccccc43)c2=O)CC1 | active: 52.4%
51 | CC(C)OCCCNC(=O)C1CCC(CNS(=O)(=O)c2ccccc2)CC1 (stereo not drawn) | inactive: 4.7%
52 | CCOCCCNC(=O)c1ccc2c(c1)N=C(CC)c1cc(Br)ccc1S2 | inconclusive: -254%
53 | CN1/C(=C\C=C2/C(=O)Oc3ccccc3C2=O)C(C)(C)c2ccccc21 | inactive: 10.6%
54 | Nc1nc(N)c2c(ccc3nccc32)[nH]1 | inactive: -24%
55 | COc1ccc(/C=C(\NC(=O)c2ccc(OCC(C)C)cc2)C(=O)OCc2ccco2)cc1 | active: 74.3%
56 | COc1ccc(OS(=O)(=O)c2ccc(N3C(=O)CCC3=O)cc2)cc1 | inconclusive: 127%
57 | CC1(C)S[C@@H]2[C@H](NC(=O)[C@H](C(=O)O)c3ccsc3)C(=O)N2[C@H]1C(=O)O | inconclusive: -110%
58 | COc1ccc(OC)c(S(=O)(=O)N2CCC(C(=O)N3CCOCC3)CC2)c1 | inactive: 5.2%
59 | COc1cccc(CNC(=O)CN(C)S(=O)(=O)c2ccc3c(c2)n(C)c(=O)c(=O)n3C)c1 | inconclusive: 122%
60 | CN1c2ccccc2C2(C)CCCC3=Cc4cccc([N+](=O)[O-])c4OC312 (stereo not drawn) | inconclusive: -18.5%
61 | CN(C)Cc1ccc(O)c(CCc2ccccc2)n1 | active: 51.6%
62 | CN1CCN(c2ccccc2NC(=S)NC(=O)c2cc3ccccc3o2)CC1 | inconclusive: 87.4%
63 | Cc1c(C(=O)NCc2ccccc2)c(-c2ccccc2)nn1-c1ccccc1 | inactive: -8.9%
64 | CCC(=O)Nc1ccc(C(=O)NNC(=O)Cc2ccccc2)cc1 | inconclusive: 121%
65 | CCOc1ccc(CCNC(=O)C2CC(=O)N(Cc3ccc(OC)cc3)C2)cc1OCC (stereo not drawn) | active: 57.2%
66 | Cc1cccc(NS(=O)(=O)c2ccc(-c3cnc(C4CC4)o3)cc2)c1C | inconclusive: -115%

Row | SMILES | inhibition
67 | Cc1ccc([N+](=O)[O-])c(OCC(O)CNC(C)(C)C)c1 (stereo not drawn) | inconclusive: 153%
68 | CCN1CCN(c2c(/C=C3\SC(=S)N(Cc4ccco4)C3=O)c(C)c(C#N)c(=O)n2C)CC1 | active: 64.9%
69 | CC(=O)Nc1ccc(S(=O)(=O)Nc2nc3ccccc3nc2N2CCc3ccccc3C2)cc1 | inconclusive: -19.3%
70 | CCOc1ccc(N(CC(=O)NCc2ccco2)C(=O)CCC(=O)Nc2nccs2)cc1 | inactive: -0.2%
71 | CC(/C=N/NC(=O)c1n[nH]c2c1CCC2)=C\c1ccccc1 | inconclusive: -204%
72 | CCOc1ccc(S(=O)(=O)N(CC(=O)N/N=C/c2cccs2)c2ccc(C)cc2)cc1 | inactive: -25%
73 | Cc1nc(-c2ccc(NC(=O)C3CC3)cc2)cs1 | inconclusive: 135%
74 | CCN1CC(CN(C)Cc2nc(-c3ccc(C(F)(F)F)cc3)no2)CC1=O (stereo not drawn) | inconclusive: -113%
75 | CCC(C(=O)NCCc1ccccc1OC)n1nc(C)c2c(C)n(-c3ccccc3)nc2c1=O (stereo not drawn) | active: 57.3%
76 | COc1ccc(S(=O)(=O)N2CCOC2CNC(=O)C(=O)NCCc2ccc(OC)c(OC)c2)cc1C (stereo not drawn) | inconclusive: 10%
77 | Cc1nc(CC(=O)Nc2nccs2)cs1 | inactive: 27.7%
78 | Cc1cccc(C)c1NS(=O)(=O)c1ccc(-c2cnc(C3CC3)o2)cc1 | inconclusive: -179%
79 | O=c1cc(-c2cccc(F)c2)[nH]c2ccccc12 | inconclusive: -366%
80 | COc1cccc2c1C(=O)c1c(O)c3c(c(O)c1C2=O)C[C@@](O)(C(C)=O)C[C@@H]3O[C@H]1C[C@H](N)[C@H](O)[C@H](C)O1 | inconclusive: 51.8%
81 | CCOc1ccccc1C(=O)N1CCN(c2cccc(Cl)c2)CC1 | inconclusive: -234%
82 | O=C(Nc1ccc(N2CCN(C(=O)c3cccs3)CC2)cc1)c1ccc(F)cc1 | inactive: -16.7%
83 | O=C(CSc1nc2ccccc2c(=O)n1CCCN1CCOCC1)Nc1ccc2c(c1)OCO2 | inconclusive: 133%
84 | Nc1c2c(nc3c1CCCC3)CCCC2 (tested in a mixture with another compound) | inconclusive: 145%
85 | COc1cccc(N2CCN(C(=O)c3ccc(CS(=O)c4ccccc4Cl)o3)CC2)c1 (stereo not drawn) | inconclusive: -214%
86 | COc1cc(SC)ccc1C(=O)N1CCCCCC1 | inactive: 0.6%
87 | COc1ccc(OCC(=O)OCC(=O)N2CC(=O)Nc3ccccc32)cc1 | inconclusive: -115%
88 | CCC1=Nc2cc(C(=O)NCc3ccco3)ccc2Sc2ccc(C)cc21 | inconclusive: -159%
